From PubChem BioAssay AID1468 (National Center for Advancing Translational Sciences (NCATS), 2008)
The campaign covered roughly 280,000 compounds. About 1,100 (0.39%) were called active. This list was built around the results that the source calls inconclusive (neither active nor inactive); the mix of calls is not that of the screen. Calls follow the shape of the dose curve; as a rule, active = well fitted inhibition curve with a large enough effect; inconclusive = small, poorly fitted or top-dose-only effect, or effect the other way; inactive = flat fitted curve, though single readings scatter. No potency is given beside an inconclusive call; the fits are too rough.

Each compound was assayed against Microtubule-associated protein tau (Homo sapiens) (UniProt P10636) (assay: qHTS for Inhibitors of Tau Fibril Formation, Fluorescence Polarization). Details: K18 P301L tau heparin fibrillization, Alexa594 FP, 6 h; series mostly up to 57.7 µM.
Chain of UniProt P10636 (P10636 whole entry, looked up): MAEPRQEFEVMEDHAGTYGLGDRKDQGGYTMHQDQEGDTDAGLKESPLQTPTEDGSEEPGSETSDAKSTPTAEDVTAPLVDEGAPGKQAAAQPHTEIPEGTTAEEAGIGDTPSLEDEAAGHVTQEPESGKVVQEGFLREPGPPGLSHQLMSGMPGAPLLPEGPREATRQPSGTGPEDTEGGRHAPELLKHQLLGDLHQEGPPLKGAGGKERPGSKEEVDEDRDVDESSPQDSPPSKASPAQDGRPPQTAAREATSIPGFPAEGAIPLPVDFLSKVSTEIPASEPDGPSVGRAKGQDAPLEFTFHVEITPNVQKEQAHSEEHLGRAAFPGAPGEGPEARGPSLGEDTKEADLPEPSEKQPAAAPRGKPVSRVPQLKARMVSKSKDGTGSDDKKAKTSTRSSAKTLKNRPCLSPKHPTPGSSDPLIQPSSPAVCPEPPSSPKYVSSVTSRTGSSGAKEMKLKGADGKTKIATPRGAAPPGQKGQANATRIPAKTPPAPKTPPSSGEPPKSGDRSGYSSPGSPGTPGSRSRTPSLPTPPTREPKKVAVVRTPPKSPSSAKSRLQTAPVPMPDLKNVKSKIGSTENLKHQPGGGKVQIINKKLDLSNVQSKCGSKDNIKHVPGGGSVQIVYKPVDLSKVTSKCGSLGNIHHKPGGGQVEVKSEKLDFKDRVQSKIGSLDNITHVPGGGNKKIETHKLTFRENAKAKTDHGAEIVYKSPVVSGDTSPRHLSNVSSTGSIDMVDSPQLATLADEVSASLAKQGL
How it was run: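 Read-out: fluorescence polarization of Alexa 594-labeled tau (0.24 uM), 555 nm excitation, 632 nm emission. Mixtures held 15 uM unlabeled K18 P301L, compound and 20 uM heparin, pH 7 acetate buffer, incubated 6 hr at 37 C.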
Also: nearly all actives have a fitted effect of over 55% in size.
Potency is read from the fitted curve at half-maximal effect; tags tell the direction and shape of the fitted curve.

Row | SMILES | Potency
1 | Cc1cc(NO)nc(-c2ccc(Br)cc2)n1 | inactive
2 | Cc1ccc(N2C(=O)C(Cl)=C(N3CCN(C)CC3)C2=O)c(C)c1 | active: 25.1 µM
3 | Cc1cccc(NC(=O)c2c(NC(=O)C(F)(F)F)sc3c2CCCCC3)c1 | inactive
4 | COc1ccc(/C=N/n2c(-c3ccco3)nc3ccccc3c2=O)cc1 | inconclusive [inhibitor, single point]
5 | CCc1ccc(CNCc2c(C(=O)O)n(Cc3cccc(F)c3)c3cc(OC)ccc23)cc1 | inactive
6 | COc1ccc(N2CCN(Cc3nc(-c4ccc(Cl)cc4Cl)no3)CC2)cc1 | inconclusive [activator, full curve, poor fit]
7 | COc1ccc(NC(=O)Cn2nnc(-c3ccccc3NS(=O)(=O)c3ccccc3)n2)cc1 | active: 15.8 µM
8 | CN(C)c1ccc(/C=C2\SC(=O)N(CC(O)Cn3c4ccccc4c4ccccc43)C2=O)cc1 (stereo not drawn) | inconclusive [activator, partial curve]
9 | C=CCn1c(SCC(=O)c2ccc(OC)cc2)nnc1-c1cc2cccc(OC)c2o1 | inactive
10 | Cc1nn(-c2ccccn2)c2c1C(=O)C(Br)CC2 (stereo not drawn) | active: 3.16 µM
11 | O=C1CCCCCN1C(=O)c1ccc(C(=O)N2CCCCCC2=O)cc1 | inactive
12 | COc1ccccc1NC(=O)c1cnc(SCC(=O)N2CCCc3ccccc32)n(C)c1=O | inconclusive [inhibitor, full curve, poor fit]
13 | CCOc1cccc(CNc2ccc(O)cc2)c1OCc1ccc(Cl)cc1Cl | active: 28.2 µM
14 | CCC1(C)OC(=O)NN(c2ccc(C)cc2)C1(C)O (stereo not drawn) | inactive
15 | CC(C)(C)c1cc(NC(=O)Nc2ccc(Cl)cc2Cl)no1 | inconclusive [inhibitor, single point]
16 | CCOc1ncccc1C(=O)Nc1ccc(-c2cn3ccsc3n2)cc1 | inconclusive [inhibitor, single point]
17 | Cc1ccc(C(=O)COc2nc(C)nc3ccccc23)cc1 | inconclusive [inhibitor, full curve, poor fit]
18 | Cc1ccc(C)c(Nc2nc3c(S(=O)(=O)c4ccc(C(C)C)cc4)nnn3c3ccsc23)c1 | inconclusive [inhibitor, single point]
19 | Cc1oc2ncn(C)c(=O)c2c1C(=O)N1CCN(c2ccccc2)CC1 | inconclusive [inhibitor, single point]
20 | COCCNC(=O)C1CCCN(S(=O)(=O)c2c(C)noc2/C=C/c2cccs2)C1 (stereo not drawn) | inconclusive [activator, single point]
21 | O=C(Cc1ccccc1)NC1(O)C(=O)c2ccccc2C1=O | inconclusive [inhibitor, partial curve]
22 | Cc1ccc2nc(N3CCN(C(=O)C4CC4)CC3)sc2c1 | inconclusive [inhibitor, single point]
23 | Cc1ccc(NS(=O)(=O)c2ccc3nc(-c4ccccc4)[nH]c3c2)c(Cl)c1 | active: 14.1 µM

Row | SMILES | Potency
24 | Cc1ccc2c(c1)-c1nc(-c3ccc4c(c3)NC(=O)CO4)cc(-c3ccc(Cl)cc3)c1CO2 | inconclusive [inhibitor, partial curve]
25 | Oc1ccc(N=Cc2ccc(O)c(O)c2)cc1 | active: 8.91 µM
26 | Cc1cc(Cl)c(OCCCn2cncn2)c(Br)c1 | inactive
27 | CCCCc1ccc(Nc2ncnc3nc[nH]c23)cc1 | inconclusive [inhibitor, single point]
28 | Cc1oc2ncn(CC(C)C)c(=O)c2c1C(=O)Nc1cc(F)ccc1F | inconclusive [inhibitor, partial curve]
29 | CC(=O)Nc1ccc(NC(=O)c2ccc(NS(=O)(=O)c3cc(C(C)(C)C)ccc3C)cc2)cc1 | inconclusive [inhibitor, full curve]
30 | COc1ccccc1CNC(=O)c1ccc2c(c1)N(Cc1cccc(Cl)c1)C(=O)c1ccccc1S2(=O)=O | inconclusive [inhibitor, partial curve]
31 | COc1ccc(OCCNc2cc(N3CCCCC3)ccc2[N+](=O)[O-])cc1 | inconclusive [inhibitor, partial curve]
32 | CN(C)/C=C1\C(=O)N(c2ccc([N+](=O)[O-])cc2)N=C1c1ccccc1 | inconclusive [inhibitor, single point]
33 | CC(=O)c1ccc(NC(=O)Cn2c(=O)c3cccn3c3ccccc32)cc1 | inconclusive [inhibitor, partial curve]
34 | Cn1c(SCC(=O)Nc2cc(Cl)cc(Cl)c2)nnc1-c1ccc2nonc2c1 | inconclusive [inhibitor, partial curve]
35 | CC(=O)c1ccc(NC(=S)Nc2ccn(Cc3ccc(Br)cc3)n2)cc1 | inconclusive [inhibitor, single point]
36 | Cc1nc2ccccc2c2c(N)c3ccccc3n12 | inconclusive [inhibitor, partial curve]
37 | Cc1ccc(Sc2ccc(NC(=O)CCl)cc2)cc1C | inconclusive [inhibitor, partial curve]
38 | Cc1c(C#N)c(NC(=O)CCl)n(Cc2ccccc2)c1C | inactive
39 | c1ccc(-c2csc3ncnc(NCC4COc5ccccc5O4)c23)cc1 (stereo not drawn) | inactive
40 | O=C(CSc1nnc2n1CCCN2C(=S)Nc1ccc(Cl)cc1)c1ccccc1 | inconclusive [inhibitor, single point]
41 | Fc1ccc(-c2cc3nc4c(c(N5CCOCC5)n3n2)CCCC4)cc1 | inactive
42 | CCC(C)c1ccc(-c2cc(C(=O)OCC(=O)Nc3cc(C)on3)c3ccccc3n2)cc1 (stereo not drawn) | inconclusive [inhibitor, full curve, poor fit]
43 | O=C1NCCN(Cc2ccoc2)C1CC(=O)N(Cc1ccccc1)CC1CCC1 (stereo not drawn) | inconclusive [inhibitor, single point]
44 | CN1C(=O)c2oc3ccccc3c(=O)c2C1c1ccncc1 (stereo not drawn) | inconclusive [inhibitor, single point]
45 | O=C(O)C1CCN(C(=O)c2ccc(Cl)cc2)CC1 | inconclusive [inhibitor, single point]
46 | CCOC(=O)C1CCC(CN(Cc2ccc(Cl)cc2)S(=O)(=O)c2ccc(F)c(C(=O)Nc3cccc(F)c3)c2)CC1 (stereo not drawn) | inconclusive [inhibitor, partial curve]

Row | SMILES | Potency
47 | CCOC(=O)c1cnc(NCc2ccccc2OC)c2ccccc12 | inconclusive [inhibitor, partial curve, poor fit]
48 | COc1ccc(S(=O)(=O)N2CCCCC2)cc1C(=O)Nc1cccc(C(F)(F)F)c1 | inconclusive [inhibitor, partial curve]
49 | N/C(=N\NC(=O)c1ccc(F)cc1)c1cc2ccccc2oc1=O | inconclusive [inhibitor, full curve, poor fit]
50 | CCOC(=O)c1cccc(NC(=O)Cn2ncc3c4ccccc4n(Cc4ccccc4)c3c2=O)c1 | inconclusive [inhibitor, single point]
51 | O=C(CNC(=S)NC(=O)c1ccc(Cl)cc1)c1ccccc1 | inconclusive [inhibitor, partial curve, poor fit]
52 | O=C1c2ccccc2C(=O)c2c1cccc2N1CCCC1 | inconclusive [inhibitor, single point]
53 | COc1ccc(-c2ccc(=O)n(CC(=O)Nc3ccc(C)cc3C)n2)cc1 | inactive
54 | COC(=O)c1sccc1NC(=S)Nc1cccc(F)c1 | inactive
55 | N/C(=N\OC(=O)CCC1CCCC1)c1ccncc1 | inconclusive [inhibitor, single point]
56 | CCOC(=O)C1=NO[C@@]2(C=C(Br)C(=O)[C@H]3O[C@H]32)C1 | inconclusive [inhibitor, partial curve]
57 | Cc1ccc(NS(=O)(=O)c2ccc3[nH]c(=O)ccc3c2)cc1N(C)C | inactive
58 | CSc1nn(Cc2ccc(Cl)cc2)c(N(C(C)=O)C(C)=O)c1S(=O)(=O)c1ccccc1 | inconclusive [inhibitor, partial curve]
59 | C/C(=N\Nc1cccc(C(=O)O)c1)c1ccc2c(c1)Nc1ccccc1S2 | inconclusive [inhibitor, single point]
60 | CCCCCCCCCCS(=O)(=O)N/N=C/c1ccc(O)cc1 | inconclusive [inhibitor, single point]
61 | COc1ccccc1Oc1nc(-c2cccnc2)nc2ccccc12 | inactive
62 | Cc1ccc(C(=O)NC(NCc2ccco2)C(Cl)(Cl)Cl)cc1 (stereo not drawn) | inconclusive [activator, single point]
63 | CCOC(=O)c1c(-c2ccc(C)o2)csc1NC(=O)CSc1nnc(C)s1 | inactive
64 | Cc1cccc(NC(=S)Nc2ccc(Cl)c(Cl)c2)c1 | inconclusive [inhibitor, partial curve]
65 | Fc1cc(Br)ccc1NC(=S)NCCc1ccccc1 | inconclusive [inhibitor, single point]
66 | CC(C)Cn1nnnc1S(=O)(=O)Cc1cccc(C#N)c1 | inconclusive [inhibitor, partial curve]
67 | COc1ccc(-c2cc(C)nc3c(-c4ccc(OC)c(OC)c4)c(C)nn23)cc1 | inconclusive [activator, full curve, poor fit]
68 | S=C(c1ccc(-c2ccccc2)o1)N1CCCCC1 | inconclusive [inhibitor, single point]
